Measured values published in the supplement of paper PMC6206098.
± gives the uncertainty stated by the source. The sequences are guide strands of siRNAs; only the seed at positions 2 to 7 varies.

Experiments:
3LL = assay: cell viability relative to siNT1 control; higher = less toxic; conditions: concentration: 10 nM; 96 h; Mus musculus;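 note: Luminescence-based viability of cells reverse transfected in 384-well plates with lipid-complexed siRNAs built on a non-toxic 19mer backbone whose passenger strand carries 2′-O-methyl groups at positions 1 and 2, triplicates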
Protocol: (§1)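 Arrayed screen of 4096 siRNA duplexes, each carrying one of all possible 6mer seeds at guide-strand positions 2-7 in a fixed neutral 19mer scaffold (constant flanks: U at position 1, then ACAUGUAAACCA, plus a 3' AA overhang). The passenger strand is 2'-O-methylated at positions 1-2 so only the guide strand loads into RISC. Duplexes were reverse-transfected at 10 nM with RNAiMAX in triplicate in 384-well plates; viability was read by CellTiter-Glo ATP content 96 h after transfection. Values are % viability normalised to lipid-only wells (HeyA8, H460, M565) or to siNT1 (3LL).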

HeyA8 = assay: cell viability relative to lipid-only control; HeyA8 human ovarian and H460 human lung cancer; M565 mouse liver and 3LL mouse lung cancer; siNT1 is a non-toxic control siRNA; higher = less toxic; conditions: concentration: 10 nM; 96 h; Homo sapiens
Protocol: as §1

H460 = assay: as above; conditions: concentration: 10 nM; 96 h; Homo sapiens
Protocol: as §1

M565 = assay: as above; conditions: concentration: 10 nM; 96 h; Mus musculus
Protocol: as §1
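Throughout, for cell viability relative to lipid-only control: reverse lipid transfection in 384-well plates, in triplicate, of duplexes on a non-toxic 19mer backbone with passenger strand 2′-O-methylated at positions 1 and 2, luminescence viability read-out.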

Sequence	cell viability (3LL) [%]	cell viability (HeyA8) [%]	cell viability (H460) [%]	cell viability (M565) [%]
UGUGGCGACAUGUAAACCAAA	42.2 ± 6.3	55.7 ± 8.1	31 ± 3.3	70.7 ± 21
UGCUUACACAUGUAAACCAAA	77.3 ± 4.3	20.4 ± 1.1	40.4 ± 1.8	94.8 ± 4.8
UACCUUUACAUGUAAACCAAA	45.5 ± 12	24.6 ± 3.2	50.2 ± 9.1	53.3 ± 12
UCGAAUAACAUGUAAACCAAA	88.7 ± 24	83.3 ± 5.7	63.3 ± 7.1	76.2 ± 8.5
UUGUCAGACAUGUAAACCAAA	48.9 ± 1.5	97.1 ± 17	87.8 ± 5.5	115 ± 20
UCUACUCACAUGUAAACCAAA	103 ± 12	77.1 ± 4.5	51.8 ± 1.7	69.6 ± 16
UGGGCUGACAUGUAAACCAAA	4.74 ± 0.73	1.43 ± 5.3	11.6 ± 0.82	7.74 ± 3.7
UUGCAGCACAUGUAAACCAAA	9.19 ± 0.58	70.5 ± 2.1	54.9 ± 2.5	33.6 ± 4.9
UCACACAACAUGUAAACCAAA	99.9 ± 16	89.8 ± 12	30.1 ± 6.9	62.4 ± 14
UAUUGUUACAUGUAAACCAAA	111 ± 15	91.3 ± 12	74.7 ± 3.7	79.8 ± 11
UCUUCCGACAUGUAAACCAAA	75 ± 18	81.4 ± 6.2	64.7 ± 12	60.9 ± 14
UCGAUUCACAUGUAAACCAAA	86.7 ± 16	60 ± 2.7	63.8 ± 11	50.1 ± 8
UCCCGGCACAUGUAAACCAAA	52.4 ± 7.8	10.3 ± 3.2	49.5 ± 4.2	40.9 ± 12
UAUCAUUACAUGUAAACCAAA	107 ± 11	96.9 ± 11	44.4 ± 11	94.8 ± 14
UGGGUCUACAUGUAAACCAAA	17.3 ± 3.2	7.4 ± 1.2	19.8 ± 2.4	16 ± 2.9
UAGAUUUACAUGUAAACCAAA	88.7 ± 9	66.3 ± 4.1	90 ± 14	75.3 ± 6.5
UGGGGCUACAUGUAAACCAAA	9.58 ± 2.5	1.39 ± 0.15	13 ± 1.2	17.8 ± 2.5
UGGCCAGACAUGUAAACCAAA	33.2 ± 11	39.3 ± 5.2	43.8 ± 3.7	46.7 ± 4.5
UCCGGGUACAUGUAAACCAAA	26 ± 5.2	36.4 ± 2.2	46.9 ± 4.4	16.8 ± 4

Sequence	cell viability (3LL) [%]	cell viability (HeyA8) [%]	cell viability (H460) [%]	cell viability (M565) [%]
UCGUGAGACAUGUAAACCAAA	87.1 ± 16	82.8 ± 2.7	63.4 ± 2.6	46.2 ± 2.5
UUUGGAGACAUGUAAACCAAA	98.4 ± 7	98.4 ± 3.9	80 ± 11	54.6 ± 5.4
UGCCUAAACAUGUAAACCAAA	87.8 ± 12	80.21 ± 0.56	54.8 ± 6.7	61.6 ± 6.9
UGGUCACACAUGUAAACCAAA	47.3 ± 1.4	78.2 ± 5	39.5 ± 1.6	55.9 ± 8.2
UCCAAGCACAUGUAAACCAAA	5.39 ± 0.96	17.8 ± 0.77	31.3 ± 0.96	6.36 ± 0.83
UCCUUGAACAUGUAAACCAAA	98.4 ± 10	84.8 ± 8.5	80.2 ± 5.6	86.3 ± 13
UAGCCUAACAUGUAAACCAAA	101 ± 20	92.4 ± 14	75.7 ± 11	62.6 ± 7.8
UAUACUUACAUGUAAACCAAA	111 ± 9.3	100 ± 4.4	66.3 ± 2.3	73.9 ± 14
UCGCACAACAUGUAAACCAAA	92.2 ± 17	88.2 ± 4	46.6 ± 8.3	61.2 ± 5.4
UAGUGUAACAUGUAAACCAAA	83.87 ± 0.74	63.6 ± 6.2	62.5 ± 11	33.7 ± 4.6
UUCGUAAACAUGUAAACCAAA	112 ± 20	96 ± 12	75.4 ± 4.7	94.4 ± 5
UGGACGUACAUGUAAACCAAA	54.9 ± 1.6	54.2 ± 2.3	35.3 ± 10	10.7 ± 4.1
UGUAAAGACAUGUAAACCAAA	97.3 ± 5	91.7 ± 3.1	87.6 ± 6.4	78.9 ± 14
UCAGCCUACAUGUAAACCAAA	72.7 ± 13	62.4 ± 2.8	43.1 ± 3.2	61.7 ± 5.1
UGUCAACACAUGUAAACCAAA	31.3 ± 9.6	9.32 ± 0.87	42.4 ± 1.9	9.55 ± 1.9
UGGGCAAACAUGUAAACCAAA	70.3 ± 4.2	2.06 ± 0.34	19.9 ± 1.4	32.7 ± 5.5
UAGCCCCACAUGUAAACCAAA	61.1 ± 13	72 ± 5.7	66.4 ± 9	25.6 ± 9.9
UCUUAUAACAUGUAAACCAAA	97.6 ± 16	87.3 ± 7.2	59 ± 9.2	76.2 ± 6.5
UCGAAUGACAUGUAAACCAAA	90.2 ± 16	85.7 ± 6	64.8 ± 6.4	77.3 ± 7.5

Sequence	cell viability (3LL) [%]	cell viability (HeyA8) [%]	cell viability (H460) [%]	cell viability (M565) [%]
UUGGACUACAUGUAAACCAAA	15.3 ± 5	58.5 ± 3.3	39.7 ± 3.6	33 ± 5.1
UUGAUGUACAUGUAAACCAAA	74.6 ± 7.5	41.43 ± 0.3	91.4 ± 3.1	30.9 ± 9
UUCACACACAUGUAAACCAAA	36.5 ± 10	68.2 ± 9.3	35.6 ± 4.8	70.1 ± 10
UCUUACGACAUGUAAACCAAA	87.8 ± 9.3	81.9 ± 7.6	64.1 ± 5.6	75.4 ± 10
UAGCCAAACAUGUAAACCAAA	97.9 ± 5.8	69 ± 4.9	59.6 ± 2.8	31.6 ± 4.8
UAACGGUACAUGUAAACCAAA	75.6 ± 11	53.8 ± 9.3	64.2 ± 1.5	69 ± 4
UCAGCAGACAUGUAAACCAAA	88.9 ± 19	78.1 ± 1.5	59.2 ± 3.2	41.1 ± 6.3
UCGCAACACAUGUAAACCAAA	94.9 ± 14	82.7 ± 5.7	83.5 ± 8.5	69 ± 5.6
UCGUGCUACAUGUAAACCAAA	80.6 ± 15	75.7 ± 6.9	94.1 ± 10	92.7 ± 9.7
UUCACGAACAUGUAAACCAAA	107 ± 17	86.5 ± 14	50.6 ± 1.8	88.2 ± 6.9
UCCGCUAACAUGUAAACCAAA	115 ± 26	88.9 ± 7.4	71.4 ± 12	90.2 ± 12
UGCGUCGACAUGUAAACCAAA	66.3 ± 14	72.4 ± 6.5	66 ± 4.6	47.3 ± 0.77
UCCGGGAACAUGUAAACCAAA	102 ± 15	78.3 ± 5.7	63.3 ± 1.6	61.7 ± 10
UAACAAGACAUGUAAACCAAA	95.8 ± 8.1	88.5 ± 7.6	57.6 ± 9.8	75.2 ± 6.9
UUAACGUACAUGUAAACCAAA	69.9 ± 17	92.3 ± 5.8	71.4 ± 12	113 ± 7.5
UCUGCUAACAUGUAAACCAAA	91.2 ± 12	89.9 ± 2.1	68.1 ± 12	67 ± 18
UUGUUCCACAUGUAAACCAAA	17.9 ± 3.1	18 ± 1.5	45 ± 6.2	11.9 ± 1.6
UAGAACCACAUGUAAACCAAA	17.6 ± 3.2	82.1 ± 5.8	58.8 ± 5.8	42.8 ± 6.3
UUUUGUGACAUGUAAACCAAA	102 ± 5.2	96.6 ± 8.7	93.9 ± 24	79.4 ± 10
